Assay results from PubChem BioAssay (NCI).
“And” between values parts separate entries of the source, which are not always exact repeats. Equal values may be shown once.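 Interpolation was linear, between the two tested concentrations surrounding the appropriate level; five concentrations were tested over 48 hours in 96-well plates. GI50: concentration for 50% inhibition of growth. At the TGI there is no net growth.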

Tested on: NCI-H322M lung
Test: NCI tumour cell line growth inhibition, 48 h

Row | SMILES | TGI | GI50
1 | O=C(CC1(O)C(=O)Nc2c(Cl)cc(Cl)cc21)c1ccc(Br)cc1 (configuration not stated) | 30 µM | 
2 | C=C(Cl)C(Cl)(CBr)CCCC(C)(C)Cl (configuration not stated) | 25.1 µM | 
3 | Nc1ncnc2c1ncc(=O)n2C1CC(O)C(CO)O1 (configuration not stated) | > 100 µM | 
4 | O=S(=O)(c1ccc(Cl)cc1)c1ccccc1C1=NCCN1 | > 100 µM | 
5 | COC1=CC(=O)N(C(=O)C2CSC(C(CO)NC(=O)c3csc(/C=N/O)n3)=N2)C1 (configuration not stated) | > 100 µM | 
6 | O=C1C(=O)c2cc([N+](=O)[O-])ccc2-c2ccc([N+](=O)[O-])cc21 | 4.09 µM | 
7 | Clc1ccc(COc2ccccc2/C=N/c2c(-c3ccco3)nc3ccccn23)c(Cl)c1 | > 100 µM | 
8 | COC1=C(OC)C(=O)C(CCCCCCCCCC[P+](c2ccccc2)(c2ccccc2)c2ccccc2)=C(C)C1=O | 7.31 µM | 0.409 µM
9 | CCCCCC(=O)Nc1n[nH]nc1C#N | > 100 µM | 
10 | COc1cccc2c1C(=O)c1c(O)c3c(c(O)c1C2=O)C[C@@](O)(C(=O)CO)C[C@@H]3OC1CC2C(OCN3CN2COC2C(C)OC(O[C@H]4C[C@](O)(C(=O)CO)Cc5c(O)c6c(c(O)c54)C(=O)c4c(OC)cccc4C6=O)CC23)C(C)O1 (some centres not stated) | 0.646 µM and 0.18 µM and 0.14 µM | 0.0284 µM and 0.0179 µM
11 | CCOC(=O)O/C(=C\c1ccc(OC)cc1)c1c(OC(=O)OCC)n(C(=O)OCC)c2ccccc12 | > 100 µM | 
12 | CCCCCCc1cc2c(C)c(C)c(=O)oc2cc1OCCCOc1cc2oc(=O)c(C)c(C)c2cc1CCCCCC | > 100 µM | 
13 | CN(C)CCn1c(=O)c2ccc(NCCCN(C)CCCNc3ccc4c(=O)n(CCN(C)C)c(=O)n5c6ccccc6c(=O)c3c45)c3c(=O)c4ccccc4n(c1=O)c23 | 1.4 µM | 
14 | COc1cccc2[nH]c3c4c(c5c(c3c12)C(=O)N(CN1CCN(C)CC1)C5=O)CCC4 | 34.5 µM | 12.9 µM
15 | COc1ccc(/C=C2\N=C(N/N=C\C(O)C(O)C(O)C(O)CO)NC2=O)cc1 (configuration not stated) | > 100 µM | 
16 | Nc1nccc2c1ncn2[C@H]1C[C@H](O)[C@@H](CO)O1 | > 100 µM | 
17 | COC(=O)Cc1cc2c(cc1C(=O)c1ccc(N)cc1)OCO2 | > 100 µM | 
18 | CC/C=C\C/C=C\C/C=C\CCCCCCCC(=O)OC | > 100 µM | 

Row | SMILES | TGI | GI50
19 | c1ccc2c(c1)nnn2CN1CCOCC1 | > 100 µM | 
20 | CC(=O)OC1CN2CCC1CC2 (configuration not stated) | > 100 µM | 
21 | O=c1cc(-c2ccc3ccccc3c2)[nH]c2ncc(Cl)cc12 | > 100 µM | 
22 | Cc1ncc([N+](=O)[O-])n1CCn1ccnc1[N+](=O)[O-] | > 100 µM | 
23 | COc1cc2c(c(OC)c1OC)-c1ccc(SC)c(=O)cc1[C@@H](NCc1ccccc1[N+](=O)[O-])CC2 | > 100 µM | 
24 | COc1cc(/C=C(\NC(=O)c2ccccc2)c2nc3[nH]c(=S)[nH]c(=O)c3[nH]2)cc(OC)c1OC | > 100 µM | 
25 | O=C(c1ccc(Cl)c(Cl)c1)N1CCN(C(=O)c2ccc(Cl)c(Cl)c2)C1=S | 35 µM | 19.8 µM
26 | CC[C@H](C)[C@H](NC(=O)c1ccccn1)C(=O)N(C)[C@H](C[C@@H](OC(C)=O)c1nc(C(=O)N[C@@H](Cc2ccccc2)C[C@H](C)C(=O)OC)cs1)C(C)C | > 100 µM | 36.9 µM
27 | c1csc(-c2cc(-c3ccsc3)c(-c3ccsc3)s2)c1 | > 100 µM | 
28 | O=c1n(-c2ccc(Cl)c(Cl)c2)c(=O)n(-c2ccc(Cl)c(Cl)c2)c(=O)n1-c1ccc(Cl)c(Cl)c1 | 8.16 µM | 
29 | O=C1C=CC(=O)C(CNc2ccc(C(=O)OC34CC5CC(CC(C5)C3)C4)cc2)=C1Br | 29.6 µM | 
30 | COC(=O)C12C3C4(C(=O)OC)C1C1(C(=O)OC)C2C3(C(=O)OC)C41C(=O)N(C(C)C)C(C)C (configuration not stated) | > 100 µM | 
31 | CC(C)(C)c1ccc(O)c(CN(Cc2c(O)ccc3ccccc23)C2CCCCC2)c1 | 41.2 µM | 
32 | O=C1/C=C/[C@@H](O)[C@@H]2C[C@@H](O)C[C@H]2/C=C/CCC[C@H](CCOCc2ccccc2)O1 | > 100 µM | 0.0785 µM
33 | COC(=O)C1=C(O)C(C(=O)OC)[C@@]2(O)[C@@H](C(=O)OC)C(c3ccc(OC(=O)/C=C/c4ccccc4)cc3)C[C@@H]1[C@@H]2C(=O)OC (some centres not stated) | 94.2 µM | 
34 | CCOC(=O)C1=c2[nH]c3cccc4cccc(c43)n2C(=O)CC1 | > 100 µM | 
35 | C[C@]12CC[C@@H]3c4ccc(O)cc4CC[C@H]3[C@@H]1CC[C@@H]2NS(=O)(=O)c1ccc(Cl)cc1 | 22.8 µM | 10.2 µM
